# Measured values reported in PubChem BioAssay AID485297 (National Center for Advancing Translational Sciences (NCATS), 2010).
# The whole screen tested about 320,000 compounds, of which about 9,100 (2.8%) were called active. The shares of active, inactive and inconclusive entries below differ from those in the screen. Calls follow the shape of the dose curve; as a rule, active = well fitted activation curve with a large enough effect; inconclusive = small, poorly fitted or top-dose-only effect; inactive = no such curve, though single readings can be large or run the other way. Potencies of inconclusive entries are left out as doubtful fits.
# Assay: qHTS Assay for Rab9 Promoter Activators; also: nearly all actives have a fitted effect of over 60% in size; as to activation, negative = inhibition: % of control where 0% means no effect
# Conditions: Huh7 Rab9 promoter-luciferase reporter, luminescence, 24 h; series mostly up to 9.22 µM; activation, negative = inhibition: at the top concentration
# In short: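 Luminescence read-out: Huh7 cells stably expressing Rab9-luciferase, treated 24 h with compound at 37 °C, then lysed with luciferase reagent for 10 min at ambient before reading.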
# Potency is read from the fitted curve at half-maximal effect; tags tell the direction and shape of the fitted curve.
Structure (SMILES),Potency,"activation, negative = inhibition"
C[C@@H](C(=O)Nc1ccc2c(c1)OCCO2)n1nnc2ccccc2c1=O,active: 3.55 µM,
Cc1ccnc(NC(=S)NC(=O)c2cccs2)c1,active: 0.794 µM,
Cc1onc(-c2ccccc2Cl)c1C(=O)Nc1nnc(C(C)C)s1,,inactive: -1.9%
O=C(Nc1cccc(-c2csc(Nc3ccccc3)n2)c1)c1ccccc1,"inconclusive [activator, single point]",
COc1cccc(C(=O)c2cc3cc(Cl)ccc3[nH]2)c1,"inconclusive [activator, partial curve]",
COc1cc(NC(=O)c2cccs2)cc(OC)c1,"inconclusive [activator, single point]",
COC(=O)CSc1nc(-c2ccccc2)cc(-c2ccco2)c1C#N,"inconclusive [activator, single point]",
Cc1ccc(-n2nnnc2SCC(=O)NC(=O)Nc2ccc3c(c2)OCCO3)cc1,"inconclusive [activator, single point]",
Cc1nn(-c2ccccc2)c(C)c1C(=O)OCC(=O)c1c(N)n(CC(C)C)c(=O)n(C)c1=O,,inactive: -25.4%
CC1CCc2nc(NC(=O)C3CC3)sc2C1 (stereo not given),"inconclusive [activator, single point]",
Cc1ccc(C)n1-c1ccc(-c2ccn[nH]2)cc1,"inconclusive [activator, single point]",
COc1ccc(-c2cn3cc(Br)cnc3n2)cc1,"inconclusive [activator, partial curve, poor fit]",
CC(=O)c1cc2c(cc1NS(=O)(=O)c1cccc(C(=O)O)c1)OCO2,,inactive: -1.69%
Cc1ccc(/C(N)=N/OC(=O)c2ccc3ccccc3c2)cc1,"inconclusive [activator, partial curve, poor fit]",
CCN1CCN(Cc2ccc(OCc3ccccc3)c(OC)c2)CC1,"inconclusive [activator, partial curve]",
COc1ccc(OCc2cc(C(=O)N3CCN(C4CCCC4)CC3)no2)c(Cl)c1,"inconclusive [activator, partial curve]",
O=C(CCc1ccccc1)NCCSc1ccccc1,"inconclusive [activator, single point]",
Cc1nn(Cc2ccccc2)c(C)c1NC(=O)CSc1nc(-c2ccccc2)nc2c1cnn2-c1ccccc1,"inconclusive [activator, single point]",
O=C(CNCc1ccccc1Cl)Nc1ccc2c(c1)OCCO2,active: 2.82 µM,
O=[N+]([O-])c1ccc2nc(-c3ccccc3)oc2c1,active: 3.16 µM,
Cc1ccc(C(=O)NC2CCCCCCC2)c(Cl)c1,active: 0.316 µM,
c1cnc2c(OCc3cn4cccnc4n3)cccc2c1,,inactive: 22.9%
O=C(Cn1cnc2ccccc2c1=O)c1ccc(Cl)cc1,"inconclusive [activator, partial curve]",
O=C(O)c1cccc(NC(=S)NC(=O)c2ccc(-c3ccccc3)cc2)c1,"inconclusive [activator, full curve]",
O=[N+]([O-])c1ccccc1CSc1nnc2ccccn12,"inconclusive [activator, single point]",
CCCc1cc(C(=O)N2CCCC(N3CCN(c4ccc(F)cc4)CC3)C2)no1 (stereo not given),,inactive: -4.15%
O=C(NNC(=O)C1CC=CCC1)c1ccccc1O (stereo not given),"inconclusive [activator, partial curve]",

Structure (SMILES),Potency,"activation, negative = inhibition"
COc1cc(O)c2c(c1)OC(c1ccc(O)cc1)CC2=O (stereo not given),,inactive: -4%
COc1ccc(-n2nc(C(=O)NCC(=O)N3CCN(c4ccccn4)CC3)c3ccccc3c2=O)cc1Cl,"inconclusive [activator, single point]",
O=C(Nc1nc2ccc(S(=O)(=O)N3CCCC3)cc2s1)c1ccccn1,"inconclusive [activator, single point]",
NC(=O)c1sc2nc3c(c(-c4ccc(Cl)cc4)c2c1N)CCCC3,,inactive: -2.57%
CN(c1ccc(O)cc1)c1nc(-c2ccccc2)cs1,"inconclusive [activator, single point]",
O=C(Nc1nc2ccsc2c(=O)s1)c1ccc(F)cc1,active: 0.282 µM,
O=C(COc1ccccc1Cl)NCc1ccccc1,"inconclusive [activator, single point]",
COc1ccc(-c2nc(Cn3c(SCc4ccccc4F)nc4ccncc43)c(C)o2)cc1,,inactive: 12.4%
COc1cc(C#N)ccc1OCC(=O)N1CCc2ccccc2C1,,inactive: -0.595%
c1ccc(-n2ncc3c(N4CCCC4)ncnc32)cc1,active: 0.501 µM,
COc1ccc(/C=C2\C(=O)N(Cc3ccc(F)cc3)CC(=O)N2Cc2ccccc2)cc1,,inactive: 3.36%
Cc1ccc(NC(=O)c2cc(C)n(-c3cccc(C)c3)c2C)cc1,"inconclusive [activator, single point]",
COCc1nnc(NC(=O)c2ccccc2[N+](=O)[O-])s1,,inactive: -2.32%
C/C(=N\NC(=O)c1cc2ccccc2cc1O)c1ccc2c(c1)OCO2,,inactive: 25%
Cc1ccc(SCc2cc(=O)n3ccsc3n2)c(C)c1,active: 3.16 µM,
Clc1ccc(C2=NOC(c3nnc(-c4ccccc4)o3)C2)cc1 (stereo not given),,inactive: -2.53%
CCC(=O)N1CCN(c2ccc(NC(=O)c3ccco3)cc2Cl)CC1,,inactive: 24.1%
Cc1cccc(C)c1NC(=O)CCCN1C(=O)C(c2ccccc2)Oc2cccnc21 (stereo not given),"inconclusive [activator, single point]",
COc1ccc(Nc2cc(C)c3ccccc3n2)cc1,"inconclusive [activator, partial curve]",
Cc1ccc2nc(CSc3nc(C)ccc3C#N)[nH]c2c1,active: 0.562 µM,
O=C(CNS(=O)(=O)c1ccccc1)NCc1cccnc1,,inactive: -5.5%
COc1cc(OC)cc(-c2nc(-c3ccccc3)no2)c1,"inconclusive [activator, single point]",
Cn1c(N)c(C(=O)Nc2ccc3ccccc3c2)sc1=S,active: 2.24 µM,
CCCc1cc(C(=O)Nc2ccccc2SC)no1,"inconclusive [activator, full curve, poor fit]",
COc1cc(SC)ccc1C(=O)Nc1ccc2c(c1)CCC2,active: 3.98 µM,
COc1cccc(-c2cc(C(=O)Nc3cccc(O)c3)no2)c1,"inconclusive [activator, single point]",
Nc1[nH]c(N=NC(=O)c2ccc(F)cc2)c2ccccc12,active: 3.98 µM,

Structure (SMILES),Potency,"activation, negative = inhibition"
Cc1cc(NC(=O)CSc2nc3c(cc2C#N)CCCCC3)no1,active: 2 µM,
Cc1cc(NC(=O)COC(=O)c2ccccc2S(=O)(=O)N(C)c2ccccc2)no1,,inactive: 8.17%
O=C(NC1CCCCCC1)c1ccc(CN2CCOCC2)cc1,active: 3.55 µM,
Cc1ccc(-n2nc(C)c(NC(=O)COC(=O)c3ccccc3NCCO)c2C)cc1,"inconclusive [activator, partial curve]",
Cc1cccc(NC(=O)CCC2CCN(C(=O)C3CC=CCC3)CC2)c1 (stereo not given),,inactive: 2.09%
CCCCNc1cnn(-c2ccccc2)c(=O)c1Cl,"inconclusive [activator, partial curve]",
COc1cc(C)ccc1OCCOc1ccccc1Cl,"inconclusive [activator, partial curve]",
CCCCn1cnc2sc(-c3ccccc3)cc2c1=O,active: 1.58 µM,
CCOC(=O)C1CCCN(C(=O)c2csc(-c3ccc4c(c3)CCO4)n2)C1 (stereo not given),,inactive: -3.82%
Cc1ccc(C)c(NC(=O)NNS(=O)(=O)c2ccc(C)c(C)c2)c1,,inactive: 7.6%
Cc1oncc1C(=O)Nc1ccc2ccccc2c1,"inconclusive [activator, single point]",
CCOc1ccc(-c2ccc(SCC(=O)NC3CCCCC3)nn2)cc1,active: 1.58 µM,
O=C(c1cc(-c2cccc(O)c2)on1)N1CCCC1,"inconclusive [activator, single point]",
CCOc1ccc(/C(O)=C2/C(=O)C(=O)N(CCN(CC)CC)C2c2cccs2)cc1 (stereo not given),"inconclusive [activator, single point]",
NS(=O)(=O)c1ccc(NC(=O)/C=C/c2ccccc2Cl)cc1,"inconclusive [activator, single point]",
Cc1ccc(S(=O)(=O)Nc2ccc3c(c2)OCCO3)cc1C,,inactive: -0.158%
Cc1ccc(C(=O)Nc2sc3c(c2C(=O)O)CCCCC3)o1,active: 3.55 µM,
O=C(CC1CCCCC1)NCc1ccc(Cl)cc1,"inconclusive [activator, partial curve]",
CCOc1ccc(-c2nc(C#N)c(NC3CC3)o2)cc1,"inconclusive [activator, single point]",
COc1ccccc1C(=O)Nc1nc2cc3c(cc2s1)OCO3,active: 1.58 µM,
Cc1ccc(NC(CC(=O)c2ccccc2)C(=O)O)cc1Cl (stereo not given),"inconclusive [activator, single point]",
Cc1nc2c(-c3ccc(Cl)cc3)cnn2c2c1CCC2,"inconclusive [activator, single point]",
Nc1ccc(C(=O)Nc2ccccc2N)cc1,"inconclusive [activator, partial curve]",
COc1cccc(NC(=O)CN(C)C(=O)CNC(=O)c2ccc(Oc3ccccc3)cc2)c1,"inconclusive [activator, single point]",
O=C(Nc1nnc(Cc2ccccc2)s1)c1ccco1,"inconclusive [activator, single point]",
Cc1cc(=O)n2[nH]c(NCc3c(F)cccc3Cl)nc2n1,"inconclusive [activator, single point]",
